Among all 110,000 compounds or so, about 230 (0.21%) showed an effect of 50% or more. Some of the results follow.
What follows are molecules tested against DPAP1 (Plasmodium falciparum, UniProt Q8IIJ9) (assay: primary screen, percent inhibition; read by cleavage of a fluorogenic dipeptide substrate; higher = more effect of the substance).
Set-up: species or system P. falciparum D10 trophozoite lysates; single well
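Note: 30 min substrate incubation versus DMSO and 10 µM JCP410 controls.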

DPAP1, sequence (Q8IIJ9 whole entry, looked up): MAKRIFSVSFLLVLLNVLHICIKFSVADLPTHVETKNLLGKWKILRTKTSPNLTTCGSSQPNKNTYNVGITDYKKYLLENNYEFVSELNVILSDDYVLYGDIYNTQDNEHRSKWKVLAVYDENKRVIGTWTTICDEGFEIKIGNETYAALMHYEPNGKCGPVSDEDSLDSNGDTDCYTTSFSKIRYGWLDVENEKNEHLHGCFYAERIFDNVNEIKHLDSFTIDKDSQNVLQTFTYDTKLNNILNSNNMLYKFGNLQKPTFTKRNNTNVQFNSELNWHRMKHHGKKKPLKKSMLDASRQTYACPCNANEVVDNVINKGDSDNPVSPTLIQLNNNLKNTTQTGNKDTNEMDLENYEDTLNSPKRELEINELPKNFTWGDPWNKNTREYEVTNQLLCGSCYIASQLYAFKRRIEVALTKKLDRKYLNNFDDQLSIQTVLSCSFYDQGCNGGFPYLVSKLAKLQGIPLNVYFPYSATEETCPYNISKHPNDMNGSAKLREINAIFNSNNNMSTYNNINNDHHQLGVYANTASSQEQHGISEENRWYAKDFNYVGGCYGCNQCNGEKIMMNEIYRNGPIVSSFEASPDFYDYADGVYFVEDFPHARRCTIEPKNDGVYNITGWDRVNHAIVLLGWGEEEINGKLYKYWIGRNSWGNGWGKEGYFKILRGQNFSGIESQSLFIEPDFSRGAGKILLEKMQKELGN

Row | SMILES | % Inhibition @ 10 uM [%]
1 | O=C(CCc1ccc(S(=O)(=O)NC2CCCCC2)cc1)NCc1ccccc1 | 0.161
2 | O=C(O)/C=C/C(=O)N(Cc1ccccc1)Cc1ccccc1 | 2.38
3 | COC(=O)c1ccc(Cl)c(-c2ccc(C(=O)N[C@@H](C[C@H](C)c3ccccc3)C(=O)NCC#N)cc2)c1 | 16.9
4 | O=C(NCc1ccc(F)cc1)c1ccc2ccccc2c1 | 1.88
5 | CN(C)CC1CSCCC1(O)c1cccc(C(F)(F)F)c1 (stereo not shown) | 9.01
6 | Oc1cc(C2CCNCC2)[nH]n1 | -6.62
7 | COc1ccccc1C1NCCc2c1[nH]c1ccccc21 (stereo not shown) | 3.31
8 | O=C(CN1CCCCC1)NC12CC3CC(CC(C3)C1)C2 | -0.711
9 | CN1CCN(c2nc(-c3cccc(C(=O)NC4(C(=O)NCC#N)CCCCC4)c3)cs2)CC1 | -3.04
10 | CC(C)(C)c1ccc(C(=O)Nc2ccc(F)cc2)cc1 | 0.247
11 | CCn1cnc2sc(C(=O)N3CCN(Cc4ccc5c(c4)OCO5)CC3)c(C)c2c1=O | -1.48
12 | COc1cc(NC(=O)c2ccc(OCc3ccccc3)cc2)ccc1NC(=O)c1ccco1 | 3.81
13 | Cc1ccccc1CSc1nc2nccnc2c(=O)n1Cc1cccs1 | -5.66
14 | COc1cccc2c1OC(c1cccs1)N1N=C(c3ccccc3O)CC21 (stereo not shown) | 6.5
15 | N#Cc1c(NC(=O)c2noc3c2CCc2ccccc2-3)sc2c1CCCC2 | -1.21
16 | Cc1nc2c(C(=O)N3CCOCC3)cnn2c(C)c1Cc1ccc(Cl)cc1 | -2.26
17 | Fc1ccccc1C1CC(c2ccc(Br)cc2)=NN1c1ccc(Br)cc1 (stereo not shown) | -11.1
18 | CCCOc1ccc(C2NC(=O)NC(C)=C2C(=O)OC)cc1 (stereo not shown) | 2.25
19 | CN(C)CCCN(CCCN(C)C)Cc1ccccc1O | 3.48
20 | CN(Cc1ccccc1)C(=O)CN(C1CCCCC1)S(=O)(=O)c1ccc(Cl)cc1 | -3.41
21 | CCSc1nc2ccccc2n1Cc1ccc(C(=O)OC)cc1 | 0.883
22 | Cc1cc(C)c(S(=O)(=O)Nc2ccc(Cl)cc2)c(C)c1 | 9.88
23 | CSc1nn(-c2cc(Oc3ccccc3C)ncn2)c(N)c1C(N)=O | -3.37
24 | O=C(CC(c1ccccc1)c1ccccc1O)NCc1ccccc1Cl (stereo not shown) | -0.0626
25 | Cc1ccc(S(=O)(=O)N(C)c2ccc(C(=O)NC3CC3)cc2)cc1 | -6.58

Row | SMILES | % Inhibition @ 10 uM [%]
26 | CC1CN(C)C(C)c2c1oc1ccc([N+](=O)[O-])cc21 (stereo not shown) | 1.63
27 | Cc1ccc(S(=O)(=O)N2CCN(C)CC2)c2nsnc12 | 5.3
28 | COc1ccc(C2c3c(n(C)c(=O)n(C)c3=O)N=C3c4ccccc4C(=O)C32)cc1OC (stereo not shown) | -4.12
29 | O=C1C(/C=N/Cc2cccs2)C(C(F)(F)F)=NN1c1nc2ccccc2s1 (stereo not shown) | -2.39
30 | CC(C)(C)C(=O)Nc1cc(C(=O)O)cc(C(=O)O)c1 | -2.63
31 | Cc1onc(-c2ccccc2Cl)c1C(=O)N1CCN(C)CC1 | -3.91
32 | CSc1ccc(/C=C2\N=C(c3ccc(C)c(C)c3)OC2=O)cc1 | 0.997
33 | Cn1ncc(Br)c1C(=O)Nc1sc2c(c1C(N)=O)CCC(C(C)(C)C)C2 (stereo not shown) | 1.02
34 | Cn1c(SCc2ccc(F)cc2)nc2ccc(C(=O)N3CCN(c4ncccn4)CC3)cc21 | -0.495
35 | CCCCCc1ccc(-c2ccc(O)nn2)cc1 | 7.55
36 | CCc1noc(C)c1C(=O)Nc1cc(C(F)(F)F)ccc1F | 1.59
37 | CCCNC(=O)CN(c1cc(C)ccc1C)S(=O)(=O)c1ccccc1 | 0.87
38 | O=C(Nc1c(-c2ccccc2)nc2ccccn12)c1ccccc1 | 3.31
39 | O=C(CC1(O)C(=O)Nc2c(Cl)ccc(Cl)c21)c1ccc(Cl)cc1 (stereo not shown) | 1.86
40 | COc1ccc(C2C(C#N)=C(N)Oc3[nH]nc(C)c32)cc1COc1ccc(C)cc1 (stereo not shown) | 5.9
41 | COc1cccc(C2=NS(=O)(=O)N(C)C(C(=O)N3CCN(C)CC3)=C2)c1 | -1.06
42 | CN(c1cccc(NS(=O)(=O)c2ccc(Br)cc2)c1)S(C)(=O)=O | -4.7
43 | CC(=O)Nc1cc(NC(C)=O)[nH]n1 | 0.66
44 | CC1(C)O[C@H]2[C@@H](O1)[C@@H](C(=O)Nc1nccs1)O[C@@H]1OC(C)(C)O[C@@H]12 | 1.64
45 | CC(C)N(Cc1ccccc1)S(=O)(=O)c1ccc2nc(O)ccc2c1 | 0.244
46 | CCC(CC)COC(=O)C1=C(C)NC(=O)CC1c1ccccc1C (stereo not shown) | 3.5
47 | COc1ccc(CC(=O)Nc2sc3c(c2C(N)=O)CCC(C)C3)cc1OC (stereo not shown) | 3.67
48 | COc1cc(C(=O)N2N=C(C3CC3)CC2(O)C(F)(F)F)cc(OC)c1OC (stereo not shown) | -0.63
49 | O=C1OC(c2ccco2)=N/C1=C\c1ccc(Cl)cc1Cl | -6.6
50 | O=CN1CCN(Cc2ccccc2Br)CC1 | -5.43

Row | SMILES | % Inhibition @ 10 uM [%]
51 | O=C(Nc1ccc(N2CCN(C(=O)c3cccs3)CC2)cc1)c1cccc(Cl)c1 | -2.29
52 | O=C(c1ccncc1)N(Cc1ccccc1)Cc1ccccc1 | -1.1
53 | O=C(Nc1ccccc1C(=O)N1CCOCC1)c1cccc(F)c1 | 2.48
54 | Clc1ccc(CNC2CCN(CCc3ccccc3)CC2)cc1Cl | -1.5
55 | Cc1cccc(-n2cc(-c3ccccc3)nc2SCC(=O)Nc2nccs2)c1 | 43.6
56 | Oc1ccc(-c2nc(-c3ccc(O)cc3)c(-c3ccccc3)[nH]2)cc1 | 3.66
57 | Nc1ccccc1-c1nc2ccccc2[nH]1 | -1.69
58 | CCC(C)NC(=O)C1=CC(c2cccc(OC)c2)=NS(=O)(=O)N1C (stereo not shown) | 2.32
59 | CC1=NC(C)(C)C(C)c2c1ccc1ccccc21 (stereo not shown) | 2.01
60 | CC1(C)CC(=O)C2=C(C1)OC(N)=C(C#N)C2c1cc(CN2CCOCC2)cs1 (stereo not shown) | 0.776
61 | CCCCN(CC)CCNC(=O)c1cn(C2CCCC2)c(=O)c2c1c1ccccc1n2C | 1.85
62 | COc1cc2c(N3C(=O)CCC3=O)c3c(=O)oc(C)cn3c2cc1OC | 1.68
63 | COc1ccc(C(=O)NCC2COc3ccccc3O2)c(OC)c1OC (stereo not shown) | -8.7
64 | Cc1nn(Cc2cccc(C(=O)NCC(C)C)c2)c(C)c1Br | 1.71
65 | CCC(Oc1ccccc1)C(=O)Nc1ccc(S(N)(=O)=O)cc1 (stereo not shown) | 6.15
66 | COc1cc(/C=C(\C#N)c2nn(CCO)c(N)c2C#N)ccc1OCc1ccc(C)cc1 | 9.09
67 | CC(C)CCNC(=O)[C@@H]1CCCN1C#N | -5.64
68 | CCOC(=O)c1c(NC(=O)C2CC(=O)OC23CCCCC3)sc2c1CCCC2 (stereo not shown) | -0.178
69 | Cc1cccc(C(C2=C(O)CC(C)(C)CC2=O)C2C(=O)CC(C)(C)CC2=O)c1 (stereo not shown) | 4.16
70 | Cc1cccc(C)c1NS(=O)(=O)c1cccc2cccnc12 | 1.84
71 | COC(=O)c1cc(-c2ccc(Br)cc2)c2c(=O)[nH]c(=O)n(C)c2n1 | 5.81
72 | CC(=O)N1CCN(Cc2ccc(N(C)C)cc2)CC1 | -2.95
73 | S=C1NCC(c2ccccc2)Oc2ccccc21 (stereo not shown) | 3.81
74 | Cc1ccc(C(=O)c2cnc3cc4c(cc3c2N2CCC(C(N)=O)CC2)OCCO4)cc1C | -0.563
75 | O=C(O)c1ccc(/C=C2/NC(=O)N(c3ccccc3)C2=O)cc1 | -2.32

Row | SMILES | % Inhibition @ 10 uM [%]
76 | CCCCOc1ccc(CSCCN)cc1 | 0.827
77 | Fc1ccc(-c2nnn(Cc3ccc(Cl)c(Cl)c3)n2)cc1 | 3.04
78 | COc1ccc(-n2nc3c(c2NC(=O)c2ccc(Cl)cc2Cl)CS(=O)(=O)C3)cc1 | 5.35
79 | N#Cc1c(N)n(-c2cccc3ccccc23)c2nc3ccccc3nc12 | 17.2
80 | COc1ccc(C2Nc3ccc4ccccc4c3C3=C2C(=O)CC(C)(C)C3)c(OC)c1 (stereo not shown) | 6.08
81 | CNC(=O)/C(C#N)=C/c1c(Oc2ccc(Br)cc2)nc2c(C)cccn2c1=O | 5.21
82 | COc1ccc2cc3cc(C(=O)N4CCCC4)sc3nc2c1 | 0.675
83 | COc1ccc(NC(=O)c2cc(-c3ccc(C)o3)nc3ccccc23)cc1 | -0.512
84 | Cc1ccc(S(=O)(=O)NCc2ccc(C(=O)N3CCCC3)cc2)cc1 | -8.34
85 | O=C(NCCc1ccccc1)c1cc(-c2cccnc2)on1 | 0.0221
86 | Cc1nc(NC2CCCCC2)c2c3c(sc2n1)CCCC3 | 0.00784
87 | CCc1ccc(N2CC(C(=O)Nc3cc(Cl)ccc3C)CC2=O)cc1 (stereo not shown) | -4.22
88 | C=CCNC(=O)CN(Cc1c(Cl)cccc1Cl)S(=O)(=O)c1ccc(Cl)cc1 | 1.17
89 | Oc1nc2cc3ccccc3cc2nc1C(F)(F)F | -4.73
90 | O=C(/C=C/c1ccc(Cl)cc1Cl)NCC1CCCO1 (stereo not shown) | -6.7
91 | COc1ccc(CCNS(=O)(=O)c2ccc(CN3C(=O)c4cccnc4C3=O)cc2)cc1OC | -5
92 | CCCCSCCCNC(=O)C1CCC(CNS(=O)(=O)c2ccc(C)cc2)CC1 (stereo not shown) | 5.47
93 | C=CCN1C(=O)N/C(=C/c2ccc(-c3ccc(C(=O)O)cc3C)o2)C1=O | -10.2
94 | Fc1ccc(N2CCN(Cc3ccc4ccccc4c3)CC2)cc1 | -4.5
95 | Nc1cc(N2CCNCC2)ccc1[N+](=O)[O-] | 0.035
96 | CN1C(=O)C(=CNC(Cc2c[nH]c3ccccc23)C(=O)O)C(=O)N(C)C1=O (stereo not shown) | -8.71
97 | CCC(=O)n1c(=O)sc2cc([N+](=O)[O-])ccc21 | -5.34
98 | CCOC(=O)N1CCN(C(=O)Cn2ncc3ccc(Cl)cc32)CC1 | -1.11
99 | N#Cc1c(C(F)(F)F)cc(-c2cccs2)nc1SCC(=O)Nc1ccc(C(N)=O)cc1 | -7.55
100 | N#Cc1c(NC(=O)CSc2nc(=O)cc(N)n2CCc2ccccc2)sc2c1CCCC2 | -1.85

From PMC6919601, “Identification of Plasmodium dipeptidyl aminopeptidase allosteric inhibitors by high throughput screening” (PLoS ONE, 2019)
